Some of the results follow. At the low end of the ranking the order means little.
target: SIX1 homeodomain (reference allele) (UniProt Q15475); assay: universal protein binding microarray; settings: Universal all-10-mer PBM (8x60K, AMADID 030236), 300 nM GST-tagged protein, Alexa Fluor 488 anti-GST; buffer, salt, pH and temperature not stated; high values mean tight binding; most listed sequences are background and not binding sites; double strand, one strand shown

Sequence | binding signal [E-score]
TAGTTTAA | -0.0896
GGGACAGA | -0.000575
GCGTGCTA | -0.18
CACGAAAG | -0.178
CCCTTTGA | 0.0539
AACCTTCT | -0.0743
CTAGTAAA | -0.0278
AGCGAGCA | -0.117
AAATATGA | 0.0816
CCCACATC | -0.102
GAAAGGGA | -0.12
CCTTTCTC | -0.141
CGTACGCA | -0.231
ACTTCATC | -0.105
GACCTCCA | -0.0668
AAGGCGTA | 0.0347
ATATGACA | 0.218
CCTTGGGA | -0.0804
AGGAGATG | 0.0497
ATCGGGTC | 0.285
AACCGCCT | -0.0287
GTTTGTAA | -0.0838
GATATATC | 0.441
ACGAGGTA | 0.0427
CAGTCGAA | -0.19

Sequence | binding signal [E-score]
CCTTTTTC | -0.0132
TCCACCCA | -0.0608
GAATGCCA | -0.134
ATACTGAA | 0.173
GTGCAGAA | 0.033
CCCACGGA | 0.0825
CAAACCTA | -0.147
GTACGTAC | -0.217
GGCCCGAA | -0.236
TGACTGAA | -0.203
GGTTACCA | -0.0641
GGACGCTA | -0.218
CCTATAAG | 0.0203
GAACCAGA | -0.184
AAGTAAGG | 0.01
ATATCTCA | 0.391
GGTTACTA | -0.0323
ATGTATAC | 0.325
GTTCGCAA | -0.18
CACGCGAC | 0.029
CCGGGTAG | 0.162
TTAATCAA | -0.0269
CGGAACCC | -0.0123
GGCGCTCA | -0.144
ACTTGCCC | -0.0433

Sequence | binding signal [E-score]
ACGGATGC | 0.0964
CGATCTCC | 0.31
CCCGCGTC | 0.0562
CCGGCCTC | -0.177
GTTGGAAA | -0.196
CGCCCGAA | -0.0929
ATCACCAG | 0.166
GACCTAGC | -0.255
GATGCCGA | 0.103
AACCGGGG | -0.0328
CGGCTAAA | 0.0214
AAAAGCAC | -0.172
ACCTGATC | 0.31
CCTCGGCC | -0.121
ATGGCTCC | 0.0801
GGCGTCCC | -0.278
AGATCGGC | 0.216
AAGGGGAG | -0.0252
TACAAAGA | 8e-05
GATTAGGC | -0.0275
ACCTGACG | -0.234
CAGACAGA | 0.0184
TCATGCGA | 0.131
CATTAGGG | -0.147
AATCGCGA | 0.0405

Sequence | binding signal [E-score]
ATCCAGAT | 0.299
ACGCCACC | -0.0991
GCCACGGC | -0.194
GATAGGCA | 0.204
GAGGTTCC | -0.11
GACACAGC | -0.186
ATTGATAG | 0.288
GCCAGGAC | -0.0808
CCAGTGAG | 0.0362
TCAGGCCA | -0.157
CTAAGGAC | -0.0935
GAATGTGC | -0.202
ACAAGCTC | -0.166
TTAACCAA | 0.031
CCGAAAAC | -0.136
GCTCCAGC | -0.158
CTAAGCTA | -0.0706
ATTAGCCA | 0.0916
AAGCCCCT | 0.0737
ATGTAGTG | 0.0135
CTTGCCGA | -0.12
AAACTTGC | -0.117
AACAAATA | 0.0302
ATCTCCGA | 0.258
TAGATTGA | 0.0399

Sequence | binding signal [E-score]
AAGTACGC | -0.137
AAGGTTGT | -0.259
TAGCGTCA | -0.121
ACCAGCAC | -0.122
ACGTAGCC | -0.1
CTTGGACA | -0.0852
AGACTGGG | -0.174
AGCACATC | -0.117
ACCGTAGT | 0.0349
AGGCGGTG | 0.14
ACTTGTGA | -0.0384
GCCTCCCA | -0.238
GTCTCAAC | 0.0972
ACTGTACA | -0.175
TCGTGCCA | -0.118
CAATCTAA | -0.0931
GAGGCAGA | -0.0899
CCAGTCAA | -0.0568
GACGGATA | 0.35
ACTGACGG | 0.0232
AACGCTTA | -0.224
GCTTATTA | 0.0659
ACGACGCC | -0.218
TAGGTAAA | -0.147
ACCCCAAT | 0.12

Sequence | binding signal [E-score]
CTACTGAA | -0.224
CTTTCACC | -0.188
CTGATTGA | -0.0273
AATTGCCA | -0.0941
TGCTGCAA | -0.108
AAAGTACG | -0.134
CCTAAAAC | -0.0821
CAAAAGGA | 0.0685
CTCGTTTC | -0.0779
ATTGTCGA | -0.0584
CGCCTTAG | -0.0767
AGCAGTAC | -0.0739
CGTGACAG | -0.0354
TCGGACAA | -0.14
TAATACCA | 0.37
GGTAGGCA | -0.0773
ACGATTAT | 0.122
ACGTTAGG | -0.118
CTCGAGAG | 0.0143
ACGTTAGT | -0.136
GATACAAC | 0.305
GGGCATGA | -0.057
AACATCCC | 0.0308
TCGTTCCA | -0.201
AGCTGGCA | -0.278

Sequence | binding signal [E-score]
GGAAAGAA | -0.262
AGGGAGTA | -0.0736
ACCGAATA | 0.18
CACCCCGC | 0.24
CGGGAACG | -0.112
ACCGACGG | -0.0456
CGGGGAAA | -0.165
ATGAAAGG | 0.0414
CTAGTGCA | 0.0234
AGTGAATA | -0.142
CCAGAGCA | -0.0837
ATTAGAAC | 0.0959
ATCCCACG | 0.192
CAATAGTA | -0.0501
CACATGGA | 0.0308
AATAGAGA | -0.087
AATCATAC | 0.00459
ACGCTGCG | -0.233
CCCTACCC | 0.0846
GAGAACTC | -0.00538
TCCTCACA | 0.0516
CGCGTGTC | 0.0551

— article PMC10668032
